Read counts are not given, so values of variants with three or more changes are uncertain.
B1: CPEB3 Ribozyme (parent)
chain: UAACAGGGGGCCACAGCAGAAGCGUUCACGUCGCAGCCCCUGUCAGAUUCUGGUGAAUCUGCGAAUUCUGCUGUAUAUCUC

Variants of: B1
Experiment: self-cleavage, relative activity (ratio to wild type); higher = more cleavage; in vitro, sequencing
Outline: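 Libraries of CPEB3 self-cleaving ribozyme mutants came from rounds of error-prone PCR and carried barcodes, which DNA sequencing matched to variants. In vitro transcription used T7 RNA polymerase at 37°C for 5 hours, with a further 15 min in DNase I before EDTA stopped the reaction; the ribozymes cleaved during both steps. The RNA was reverse transcribed with template switching and sequenced on Illumina. Relative activity is the cleaved/total read fraction of a variant divided by that of the unmutated ribozyme, averaged over three batches with at least 5 reads.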
A3U A13U A35U U76C gave a self-cleavage of 0.85. With A3G U54C A65U U72C the self-cleavage was 0.26. In the case of A3G U26C U43G U48C U58C G61A U67C, the self-cleavage is reported as 0.11. For A3G U31A U49A, the self-cleavage was 0.56. Work on A3G U26C A65G yielded a self-cleavage of 0.32. Variant A3G U66C C81A has a self-cleavage of 0.68. Variant A3G U26C U51C A64G has a self-cleavage of 0.09. In the case of A3G G9A U41A U72C U78C, the self-cleavage is reported as 0.07. Variant A3U A18G A47U has a self-cleavage of 0.42. Work on A3G U26C U31G A64G U66A yielded a self-cleavage of 0.36. For A3G U25A U26A A56U, the self-cleavage was 0.09. For A3G U26A U54A, the self-cleavage was 0.85. Work on A3U A13G A56G C71U U74C U78C yielded a self-cleavage of 0.56. With A3G U41A A45G A56C A64U the self-cleavage was 0.22. In the case of A3G G10A A45U U72C A75G, the self-cleavage is reported as 0.2. In the case of A3U A18G U25C U51A A64U U66A, the self-cleavage is reported as 0.26. A3G U43C A56G showed a self-cleavage of 0.45. A3G U25C U26C A45U U69G showed a self-cleavage of 0.3. Work on A3G G9U A21G U78C yielded a self-cleavage of 0.06. A3U A5G A56G U60C gave a self-cleavage of 0.05. Variant A3G G9U C40U U48A G61U has a self-cleavage of 0.27. For A3G U26A C38U C50A U74A, the self-cleavage was 0.68. In the case of A3G G36U U43C U51A G61A, the self-cleavage is reported as 0.11. Work on A3G U43C U74A yielded a self-cleavage of 1.02. In the case of A3G G16A U25G A56G, the self-cleavage is reported as 0.08. For A3G G16U A21G U26C U43A U51A A64U, the self-cleavage was 0.05. A3G U26C G55U gave a self-cleavage of 0.56. With A3G G10A C23A U31C U49C G63A U76C the self-cleavage was 0.05. With A3G G8A A28G G33U A45G U49C the self-cleavage was 0.06. For A3G U60C G61A, the self-cleavage was 0.42. For A3U A13U G30A C50A C62G A65G, the self-cleavage was 0.23. With A3U A5G G7U A18U U31C A35U U49A the self-cleavage was 0.06. With A3U A15U A21U A28G A47U U74A the self-cleavage was 0.1. A3U A13U A20U U41C showed a self-cleavage of 0.48. Work on A3U A18G A35G U80A yielded a self-cleavage of 0.61. For A3G U48C U60G, the self-cleavage was 0.47. A3U A13G C38A U41C G46A U48G U66C gave a self-cleavage of 0.11. A3G G10A U31C U41C U66C gave a self-cleavage of 0.08. A3G U67C U69C gave a self-cleavage of 0.51. Work on A3G U25C G33A A64U yielded a self-cleavage of 0.2. Work on A3G U25C A35U U58A yielded a self-cleavage of 0.29. A3G G8A U41C U51C U60C C71U gave a self-cleavage of 0.14. Variant A3G G36A U58C U67C U69C U72C has a self-cleavage of 0.08. In the case of A3G U25A G53A U74C, the self-cleavage is reported as 0.49. A3U A13U A18G U26A A57G U58C gave a self-cleavage of 0.12. With A3G U26A U41C the self-cleavage was 0.87. Variant A3U A13C C17U U25C U80C has a self-cleavage of 0.63. A3G U26C U48C A56U U72A gave a self-cleavage of 0.12. In the case of A3G G10A A18U, the self-cleavage is reported as 0.16. Variant A3U A5U U25A U51C A64G has a self-cleavage of 0.23. For A3G G16C U67C, the self-cleavage was 0.02. With A3G U51C G52U the self-cleavage was 1.27. Work on A3G U26C U66C yielded a self-cleavage of 0.4. For A3U A18G A35G C40A, the self-cleavage was 0.44. Variant A3U A13G U26C U67C has a self-cleavage of 0.24. Variant A3G U25C A45G U58A U80C has a self-cleavage of 0.12. Work on A3G U54C U60A A64U U74A yielded a self-cleavage of 0.31. For A3G G10A A13U U31A U78C, the self-cleavage was 0.09. A3G U26C U41C A64G G70C showed a self-cleavage of 0.14. In the case of A3G U25C A56U, the self-cleavage is reported as 0.44. Variant A3G U26C U48C has a self-cleavage of 0.12. Work on A3G U41A U48C yielded a self-cleavage of 0.23. Variant A3G G24A U49A A57G U58C U74A has a self-cleavage of 0.13. A3G U41C U51C G63A U67C showed a self-cleavage of 0.42. In the case of A3G U26C U31C U80C, the self-cleavage is reported as 0.57. A3G U26C U69C gave a self-cleavage of 0.26. Work on A3G U26A A35G yielded a self-cleavage of 1.25. Work on A3U A13G C29A A47G U69A U72C U80C yielded a self-cleavage of 0.11. Work on A3G G30A A64G U78A yielded a self-cleavage of 0.07. A3G U26G A57G U60A U67C gave a self-cleavage of 0.11. In the case of A3G U41C A45U U49C U51C, the self-cleavage is reported as 0.48. Work on A3G G30A A64G yielded a self-cleavage of 0.37. With A3G G8U A18G A45G U54C U74A A75U the self-cleavage was 0.06. With A3G U41A U51A G63U the self-cleavage was 0.17. Work on A3G G55A U58C yielded a self-cleavage of 0.29. A3G G36A A45U U54C showed a self-cleavage of 0.1. Variant A3G U25C A45U has a self-cleavage of 0.56. A3G U26C A64G C68A U69G gave a self-cleavage of 0.25. With A3G U31C A56G the self-cleavage was 0.69. In the case of A3G U43A U72A A77U, the self-cleavage is reported as 0.9. A3G G9A A15U gave a self-cleavage of 0.14. For A3G U25C C39U U41C G73C, the self-cleavage was 0.1. Work on A3G U26C C44U yielded a self-cleavage of 0.17. A3U A13U A21U G24C U25C C50A gave a self-cleavage of 0.03. A3G U41A U43A U76A showed a self-cleavage of 0.23. A3G U49A U54C showed a self-cleavage of 0.67. For A3U A18G G24U U25C U49C U80C, the self-cleavage was 0.09. Variant A3G U26C C39U U72C U74C has a self-cleavage of 0.38. A3G G8U A18G A21U U26C G36A U60A showed a self-cleavage of 0.03. With A3G U25G U49A U72A the self-cleavage was 0.1. A3G G10A C62U U78C gave a self-cleavage of 0.2. A3G G9A A15G U26C C81U showed a self-cleavage of 0.1. With A3G G33A A45U G55A the self-cleavage was 0.56. For A3G U25G U31C U72C, the self-cleavage was 0.15. With A3G U43C U60A the self-cleavage was 0.39. For A3U A18G U25A C27A A28G G36A, the self-cleavage was 0.07. In the case of A3G U26A C38U U41G U58C A64U U69C, the self-cleavage is reported as 0.08. For A3G G8U U41A U66C, the self-cleavage was 0.08. Work on A3G G24A U31A U48C yielded a self-cleavage of 0.18. Variant A3G U25C A28G U41C U67A U80C has a self-cleavage of 0.25. In the case of A3G U31A C32A U80C, the self-cleavage is reported as 0.18. With A3G G19U A28G C29G A65G U78C U80C the self-cleavage was 0.2. In the case of A3G U54A G70C A77G, the self-cleavage is reported as 0.33. In the case of A3G U25C C38A, the self-cleavage is reported as 0.14. For A3U A13U A57G U76C U80A, the self-cleavage was 1.27. Work on A3G U76C U78C yielded a self-cleavage of 0.92. Work on A3G U76C U78A yielded a self-cleavage of 1.19. With A3U A15U C39U the self-cleavage was 0.69. With A3G U25C U31A U67C the self-cleavage was 0.28. For A3G U41C U67C U69A, the self-cleavage was 0.37. For A3G G24C U26A C40U U66A U72C, the self-cleavage was 0.19. With A3G U43C U51C A57U the self-cleavage was 0.28. With A3G G8A C11U U43C U80C the self-cleavage was 0.08. For A3G U60C U74G, the self-cleavage was 0.8. In the case of A3G U41C A45G A65G U74A, the self-cleavage is reported as 0.48. For A3G U49C U54A A57G, the self-cleavage was 0.5. Work on A3G G8A C14U C37A U60G U66C yielded a self-cleavage of 0.03. With A3G G24A U26C U31A A35G the self-cleavage was 0.09. A3G U26C C79A showed a self-cleavage of 0.56. For A3U A13G A15G U26A A45U U60C U72A, the self-cleavage was 0.02. In the case of A3G G8A A15U U26A A35G U43C U51C, the self-cleavage is reported as 0.06. Variant A3G U41A A47U A64G has a self-cleavage of 0.45. A3G G30A A35G gave a self-cleavage of 0.45. Work on A3G U26C A35G A45U U72A yielded a self-cleavage of 0.13. Variant A3G G19A U41C A56G U72G has a self-cleavage of 0.35. For A3U A5G A20U C23G U26A, the self-cleavage was 0.48. Work on A3G U25A U26A U49C U76A U78C yielded a self-cleavage of 0.11. A3G G9A A35U showed a self-cleavage of 0.12. Variant A3G G16U A28G U31A has a self-cleavage of 0.37. In the case of A3U A5C C38G A45U U49C, the self-cleavage is reported as 0.15. In the case of A3G G10A C32U U78C U80G, the self-cleavage is reported as 0.06. Work on A3G U26C U74C yielded a self-cleavage of 1.02. With A3G U41C C44A U48A U54C C68G the self-cleavage was 0.25. With A3G U41C U51G A56U the self-cleavage was 0.58. A3G G8A A21G G22U A56G U58A A77G gave a self-cleavage of 0.06. A3G G9A A35G A57G showed a self-cleavage of 1.09. Work on A3G U43C U60C U67A yielded a self-cleavage of 0.21. Variant A3G U31C U41A has a self-cleavage of 0.32. Variant A3G U58G U67C has a self-cleavage of 0.34. For A3G G24A C29G U60G, the self-cleavage was 0.08. A3G U41C A64U U80C gave a self-cleavage of 0.25. A3G U60A C68U showed a self-cleavage of 0.44. Variant A3G U25A A57G has a self-cleavage of 0.51. A3G U31C U51G gave a self-cleavage of 0.94. For A3G U66G U78C, the self-cleavage was 0.39. In the case of A3G G30U U41C, the self-cleavage is reported as 0.29. With A3G U48C G55A U58C the self-cleavage was 0.22. For A3U A5G G7U A18G A28U A45G A65G, the self-cleavage was 0.3. For A3G U26C G53A A64U C79U, the self-cleavage was 0.1. In the case of A3G U48C U54C A57G U60A, the self-cleavage is reported as 0.94. With A3G U26C U41G U49C U60C the self-cleavage was 0.43. Work on A3G U31C A35G U41A A45G yielded a self-cleavage of 0.37. In the case of A3G G22U A57G U60C U69C, the self-cleavage is reported as 0.12. With A3U A13G A15G C39U G52U the self-cleavage was 0.37. A3G G8A A21G A35U U48C A57G showed a self-cleavage of 0.06. For A3G U43A A45G U49C, the self-cleavage was 0.11. With A3G U41C U49C A57G U66C the self-cleavage was 0.19. A3G U26A G46A U76C C81A gave a self-cleavage of 0.15. A3G G9C A20G G24U U78C gave a self-cleavage of 0.35. With A3G U72C U80C the self-cleavage was 1.27. A3G U72C U80A gave a self-cleavage of 1.23. With A3U A13U A15C G16U U25C the self-cleavage was 0.1. For A3G U26C C40A A45G, the self-cleavage was 0.04. A3G G16U U41A gave a self-cleavage of 0.11. Variant A3U A18C U58G A64G G70A has a self-cleavage of 0.09. For A3G U26C A28C, the self-cleavage was 0.52. A3G U26C C40A gave a self-cleavage of 0.09.
